Results published in US20100226974A1, “ANTIBODY RECOGNIZING ANTIGEN” (MITSUBISHI TANABE PHARMA CORPORATION, priority 2002, published 2010).

Assays:
[1] = system: nmMHCA-stably expressing cell line of COS-7; assay: Cell surface reactivity (antibody binding number) by flow cytometry, transplanted tumor cells of nmMHCA-stably expressing COS-7; set-up: species or system Cercopithecus aetiopus; conditions: FITC-labeled antibody 33 μg/ml in human serum
Description: (§1) An nmMHCA-stably expressing cell line was suspended in MatriGel and subcutaneously transplanted into 2 spots under the back of a nude mouse at a dose of 5×10^6 cells/spot. Tumor was extracted after confirming its development and cut into thin pieces to collect tumor cells. FITC-labeled GAH antibody or FITC-labeled human immunoglobulin was diluted with human serum (Scanty Bodies Laboratory) to a concentration of 33 μg/ml. Also, FITC-labeled anti-nmMHC antibody or FITC-labeled rabbit IgG was diluted with human serum to a concentration of 50 μg/ml. These antibody solutions were thoroughly mixed with each of tumor cells and allowed to react for 1 hour under shade and ice-cooling. […] Cells were suspended in FACSflow (buffer attached to the flow cytometer) solution containing 5 μg/ml PI, PI-positive cells, namely dead cells, were excluded from the subject of analysis by gating operation in the same manner as in Example 1, and the mean value of FITC fluorescence intensity per one cell in the intact cell population was calculated. A calibration curve was prepared from the mean value, measured under the same condition, of fluorescence intensity of standard fluorescent beads (Flow Cytometry Standards) wherein the number of bound FITC molecules is already known, and the mean value of each sample was converted into the amount of bound FITC. […]

[2] = system: tumor cells formed by subcutaneous transplantation of MKN45 vs cultured cells of MKN45; assay: Reactivity comparison of FITC-labeled GAH antibody by flow cytometry; format: binding, human; conditions: FITC-labeled antibody 20 μg/ml, 4° C., 1 hour; FL1 mean channel number minus background
Description: A human gastric cancer cell MKN45 (Immuno-Biological Laboratories) was cultured in a liquid medium eRDF (Gibco) containing 10% fetal bovine serum (Sigma), and the resulting cells were recovered and subcutaneously transplanted under the back of an about 5-week-old BALB/C node mouse (CLEA Japan). The thus formed subcutaneous tumor tissue was extracted, and a cell was isolated from the tissue in accordance with the method of Tokita et al., [Gan no Rinsho (Clinical Cancera), 32, 1803 (1986)]. The tissue was put on a Teflon sheet spread on a rubber plate, cut into thin pieces by tapping with a razor, and then passed through a nylon mesh (a cell strainer, FALCON) to remove the connective tissue. […]
Cultured cells of MKN45 or cells of a solid tumor (hereinafter referred to as “tumor cells”) formed by subcutaneous transplantation of MKN45 were allowed to react with the GAH antibody described in EP-A-520499 and EP-A-1174126, which had been labeled with fluorescein isothiocyanate (FITC: Sigma), in a concentration of 20 μg/ml at 4° C. for 1 hour, and then washed once with phosphate buffered saline (PBS). […] By calculating the mean channel number of FL1 as an index of FITC fluorescence intensity, comparison of the cultured cells and tumor cells of MKN45 was carried out.

[3] = system: tissue sections derived from nmMHCA-stably expressing cell lines (FL1, FL2, FL7); assay: Immuno-staining of nude mouse transplantation cancer cell sections using nmMHCA-expressing HCT-15 cell lines; format: binding, human; conditions: nmMHCA-stably expressing lines compared with mock cell section; biotin-labeled antibody, 37° C., 2 hours
Description: Various nmMHCA-stably expressing cell lines of HCT-15 were suspended in MatriGel (Becton Dickinson) and subcutaneously transplanted into 2 spots under the back of a nude mouse at a dose of 5×10^6 cells/spot. Tumor was extracted after confirming its development, and a part thereof was soaked in 10% formalin-PBS to prepare paraffin sections, followed by hematoxylin-eosin (HE) staining at Nara Pathology Institute.
Each section was treated with xylene and ethanol to remove paraffin, soaked in 10 mM sodium citrate, pH 6.0 buffer, exposed to microwave (3 times, 600 W 5 minutes for each), air-cooled by allowing to stand at room temperature for 30 minutes, and then soaked in 5% (w/v) BSA-PBSAz solution for 1 hour. The section was incubated with 66 μg/ml of biotin-labeled F(ab′)2 fragment of GAH antibody, or 100 μg/ml of biotin-labeled anti-nmMHC antibody, at 37° C. for 2 hours, and then allowed to react with 2.5 times diluted streptoavidin PerCP (Becton Dickinson) under ice-cooling and shade. After the reaction, red fluorescence of PerCP in the same visual field of each section was observed using Olympus incident-light fluorescence microscope BX-50.

[4] = system: nmMHCA-stably expressing cell line of HCT-15; assay: Cell surface reactivity (antibody binding number) by flow cytometry, transplanted tumor cells of nmMHCA-stably expressing HCT-15; conditions: FITC-labeled antibody 33 μg/ml in human serum
Description: as §1

B1: GAH antibody: human monoclonal antibody disclosed in EP-A-520499; heavy and light chain variable regions SEQ ID NOs:7 and 8 (antibody, listed as Homo sapiens, V domains shown)
VH: QVQLQESGPGLVKPSQTLSLTCTVSGGSISSCGFYWNWIRQHPGKGLEWIGYIYYSGSTYYNPSLKSRVTISLDTSKSQFSLKLSSLTAADTAVYYCARSTRLRGADYWGQGTMVTVSS
VL: DIVMTQSPDSLAVSLGERATINCKSSQSVLYNSNNKKYLAWYQQKPGQPPKLLIYWASTRESGVPDRFSGSGSGTDFTLTISSLQAEDVAVYYCQQYYSTPWTFGQGTKVEIKR
- reactivity (antibody binding number) in comparison with the mock cell line [1]: increased
- reactivity for the tumor cells relative to the cultured cells of MKN45 [2]: about 18 times
- red fluorescence of PerCP in tissue sections [3]: strong red fluorescence
- reactivity (antibody binding number) in comparison with the mock cell line [4]: increased
